{"source": "PubChem BioAssay AID1346428", "about": "(National Center for Advancing Translational Sciences (NCATS), 2018)", "note": "Where “and” joins values, the source holds several entries; their conditions need not be identical. Equal values may be shown once. Out of some 48,000 compounds screened, about 1,200 (2.5%) were called active. Another 2% or so got no clear call; they are omitted.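 The calls were made as follows: active = activation of at least 60% and not above a set upper limit (about 1 call in 100 departs from these limits); inconclusive = activation of 40% to 60%, or above that upper limit; inactive = activation under 40%.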 Some of the results follow.", "data": [{"biological_target": "Probable G-protein coupled receptor 32 (Homo sapiens) (UniProt O75388)", "sequence (O75388 whole entry, looked up)": "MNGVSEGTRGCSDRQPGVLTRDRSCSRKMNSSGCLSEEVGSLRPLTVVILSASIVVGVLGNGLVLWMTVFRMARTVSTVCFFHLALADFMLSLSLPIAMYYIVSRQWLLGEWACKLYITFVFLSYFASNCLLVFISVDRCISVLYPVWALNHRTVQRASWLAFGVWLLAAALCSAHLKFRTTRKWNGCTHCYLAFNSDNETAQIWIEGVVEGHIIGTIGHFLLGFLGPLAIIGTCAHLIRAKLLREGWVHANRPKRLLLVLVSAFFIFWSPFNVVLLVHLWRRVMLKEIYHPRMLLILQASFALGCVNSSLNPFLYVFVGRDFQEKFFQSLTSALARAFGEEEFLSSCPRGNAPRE", "test": "qHTS for Agonists of Human Resolvin D1 Receptor DRV1; also: 0% is about no effect", "details": "CHO-K1 GPR32 beta-arrestin PathHunter luminescence, 90 min; at 76.9 µM; active compounds read high; zero percent set by DMSO-only wells", "method_in_brief": "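Engineered CHO-K1 line co-expressing GPR32-ProLink and EA-beta-arrestin. Compound treatment lasted 90 min at 37 °C. Luminescence was recorded after 1 h with substrate at ambient temperature, relative to DMSO basal wells.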", "values": [{"smiles": "CCC1CN(C(=O)NCc2ccc(F)cc2)c2cc(Cl)ccc2O1", "note": "(configuration not stated)", "activation": "inactive: -9.76%"}, {"smiles": "CCCCOc1ccc(CNC(=O)CN2C(=O)CCn3nc(-c4cn(C)c5ccccc45)cc32)cc1", "activation": "inactive: 39%"}, {"smiles": "COc1ccc(NC(=O)C2CCCN(S(=O)(=O)c3c(C)[nH]c(=O)[nH]c3=O)C2)cc1", "note": "(configuration not stated)", "activation": "inactive: -13.1%"}, {"smiles": "CSC(=N)N", "activation": "inactive: -7.71%"}, {"smiles": "COc1ccc(S(=O)(=O)NCCc2csc(-c3cccc(F)c3)n2)cc1OC", "activation": "inactive: 18.7%"}, {"smiles": "COc1cc(OC)c(NC(=O)CC(C)S(=O)(=O)c2ccc3c(c2)NC(=O)CO3)cc1Cl", "note": "(configuration not stated)", "activation": "active: 73.4%"}, {"smiles": "CCOc1ccc(/C=C/C(=O)Nc2sc3c(c2C(=O)OC)CCCC3)cc1", "activation": "inactive: -2.06%"}, {"smiles": "Nc1nc(Nc2cccc(Cl)c2)sc1C(=O)c1ccc(F)cc1", "activation": "inactive: -20.2%"}, {"smiles": "COc1ccc(-c2nn(-c3ccc(C)c(Cl)c3)c3c2cnc2cc(OC)c(OC)cc23)cc1", "activation": "inactive: -11.5%"}, {"smiles": "Cc1ccc(S(=O)(=O)CC(=O)Nc2nc3c(C)cccc3s2)cc1", "activation": "inactive: 1.09%"}, {"smiles": "Cc1ccc(-c2c3c(=O)n(C)c(=O)n(C)c3c3cnc4ccccc4n23)cc1", "activation": "inactive: -11%"}, {"smiles": "CSc1ccc(/C=C/c2nc3ccccc3n2S(=O)(=O)c2ccc(Br)cc2)cc1", "activation": "inactive: -11.2%"}, {"smiles": "Cc1ccc(N2CCN(Cc3nnc(-c4ccccc4F)o3)CC2)c(C)c1", "activation": "inactive: -6.77%"}, {"smiles": "CC(=O)N1CCc2cc(Br)cc(S(=O)(=O)NCCc3cccc(C)c3)c21", "activation": "inactive: -2.8%"}, {"smiles": "CCOC(=O)c1c(C)[nH]c(C)c1S(=O)(=O)N1CCCC(C(=O)Nc2cccc(CC)c2)C1", "note": "(configuration not stated)", "activation": "inactive: 11.7%"}, {"smiles": "COc1cccc(NC(=O)/C(C#N)=C/c2c(C)n(Cc3ccccc3)c3ccccc23)c1", "activation": "inactive: -22%"}, {"smiles": "CCOc1ccc(NC(=O)CCc2c(C)nc3nc(-c4cc(OC)cc(OC)c4)nn3c2C)cc1", "activation": "inactive: -3.29%"}, {"smiles": "COc1ccccc1Nc1nc(N)nc(N)c1S(=O)(=O)c1ccccc1", "activation": "inactive: 4.23%"}, {"smiles": "COc1ccc(-n2nnc(-c3nsc(NC(=O)c4cccc(C)c4)n3)c2C)cc1OC", "activation": "inactive: 21.3%"}, {"smiles": "COc1ccc(-c2[nH]c3c(c2-c2c(-n4cccc4)n(C)c(=O)[nH]c2=O)c(=O)[nH]c(=O)n3C)cc1F", "activation": "inactive: -4.39%"}, {"smiles": "Fc1ccc(C(NCCc2ccc(Cl)cc2)c2nnc(-c3ccccc3Cl)o2)cc1", "note": "(configuration not stated)", "activation": "inactive: -36.6%"}, {"smiles": "O=C(Nc1ccc(Cl)c(C(F)(F)F)c1)c1nc2ccccc2nc1N1CCCCC1", "activation": "inactive: -0.921%"}, {"smiles": "CSc1ncc(Cl)c(C(=O)N(C)c2ccccc2)n1", "activation": "inactive: 2.07%"}, {"smiles": "CCN1CCN(c2ncc3c(n2)CCN(Cc2cccc(F)c2F)C3)CC1", "activation": "inactive: -24.3%"}, {"smiles": "COc1cccc(NC(=O)Cn2nnc(C(=O)NCc3ccc4c(c3)OCO4)c2N)c1", "activation": "inactive: -0.0063%"}, {"smiles": "CCOCCCNC(=O)c1cn(CC(C)C)c(=O)c2c1c1ccccc1n2C", "activation": "inactive: 8.52%"}, {"smiles": "Cn1c(SCC(=O)Nc2nc3ccccc3s2)ncc(C(=O)Nc2ccc(Cl)cc2)c1=O", "activation": "inactive: 5.21%"}, {"smiles": "COC(=O)c1ccccc1NC(=O)c1nn(C)c2c1COc1ccccc1-2", "activation": "inactive: -13.6%"}, {"smiles": "Cc1cccn2c(=O)c3cc(C#N)c(=O)n(-c4nnc(SCc5ccc(F)cc5)s4)c3nc12", "activation": "inactive: 9.5%"}, {"smiles": "COc1ccccc1Nc1ncc2c(n1)CCN(Cc1cc(F)cc(F)c1)C2", "activation": "inactive: 21.4%"}, {"smiles": "CN(C)c1cc(NC(=O)CNC(C)(C)C)c(O)c2c1C[C@@H]1C[C@H]3[C@H](N(C)C)C(=O)C(C(N)=O)=C(O)[C@@]3(O)C(=O)C1=C2O", "activation": "inactive: 0.175%"}, {"smiles": "Cc1cc(C)c(NC(=O)CSc2nc(=O)n(Cc3cccnc3)c3c2CCC3)c(C)c1", "activation": "inactive: -8.55%"}, {"smiles": "COc1ccc(-c2nc3sc(CCNC(=O)C(=O)Nc4cc(F)ccc4F)c(C)n3n2)cc1", "activation": "inactive: -13%"}, {"smiles": "COc1ccc2cc3cc(C(=O)N4CCN(c5cccc(C(F)(F)F)c5)CC4)sc3nc2c1", "activation": "inactive: 4.15%"}, {"smiles": "COc1cc([N+](=O)[O-])ccc1NC(=O)N1CCC2(CC1)Nc1ccccc1-n1cccc12", "activation": "inactive: -35.4%"}, {"smiles": "CCn1cc(C(=O)NCCN(CC(C)C)CC(C)C)c(=O)c2cc(S(=O)(=O)N(C)C3CCCCC3)ccc21", "activation": "inactive: 7.16%"}, {"smiles": "Cc1cccc(CCNC(=O)c2cc3c(=O)[nH]c4ccc(C)cc4c3s2)c1", "activation": "inactive: -9.74%"}, {"smiles": "Clc1ccc2c(c1)CCc1cccnc1C2=C1CCNCC1", "activation": "inactive: 6.93%"}, {"smiles": "COc1ccccc1CNc1nc2ccccc2c2nc(-c3cccc(C)c3)nn12", "activation": "inactive: -7.28%"}, {"smiles": "COc1ccc(NC(=O)c2nnn(CC(=O)Nc3cccc(C)c3C)c2N)c(OC)c1", "activation": "inactive: -7.22%"}, {"smiles": "CCOCCCn1c(SCC(=O)NCc2ccccc2)nc2c(sc3ccccc32)c1=O", "activation": "inactive: 33.9%"}, {"smiles": "Cn1c(=O)n(C)c2cc(N3CCOCC3)c(NC(=O)c3ccc(C(C)(C)C)cc3)cc21", "activation": "inactive: 37.3%"}, {"smiles": "CCCCOc1ccccc1Cn1c(=O)sc2ccccc21", "activation": "inactive: -29.6%"}, {"smiles": "O=C1NCC2(CCN(CCc3ccccc3)CC2)O1", "activation": "inactive: 30.8% and inactive: 1.81%"}, {"smiles": "CCOc1ccc(C(=O)Nc2cccc(NC(=O)c3ccc(Cl)cc3Cl)c2)cc1", "activation": "inactive: -4.92%"}, {"smiles": "Cc1cccc(NC(=O)CN(C)S(=O)(=O)c2ccc3c(c2)CCC(=O)N3)c1C", "activation": "inactive: 40.4%"}, {"smiles": "CSc1ccc(CNC(=O)c2sc3ncnc(N(C)C4CCCCC4)c3c2C)cc1", "activation": "inactive: -19.3%"}, {"smiles": "Cc1cccc(C(=O)N2c3ncnn3C3(CCCCC3)[C@@H]3CCCC[C@@H]32)c1", "activation": "inactive: -2.57%"}, {"smiles": "Cc1ccc(Nc2nc3ccccc3nc2-n2nc(C)cc2C)c(Cl)c1", "activation": "inactive: -22.4%"}, {"smiles": "CCc1cccc(N2C(=O)CS(=O)(=O)C23C(=O)N(Cc2ccccc2)c2ccc(C)cc23)c1", "note": "(configuration not stated)", "activation": "inactive: -9.05%"}, {"smiles": "Cc1c(C(=O)Nc2ccc(F)cc2)oc2ccc(S(=O)(=O)N3CCCCCC3)cc12", "activation": "inactive: 4.37%"}, {"smiles": "CCOc1ccc(CN2C(=O)C(=O)c3cccc(C)c32)cc1OC", "activation": "inactive: -81.6%"}, {"smiles": "Cc1cccc(Nc2cc(C)nc(-n3nc(C)cc3C)n2)c1", "activation": "inactive: -20.8%"}, {"smiles": "CCOC(=O)c1cccc(NS(=O)(=O)c2ccc(-c3coc(C)n3)cc2)c1", "activation": "inactive: 30.7%"}, {"smiles": "COC(=O)c1ccc2c(=O)n(CCc3ccc(S(N)(=O)=O)cc3)c(SCC(=O)C(C)(C)C)nc2c1", "activation": "inactive: 20.7%"}, {"smiles": "COc1ccc(-c2cc(C(F)(F)F)n3ncc(-c4ccccc4)c3n2)cc1", "activation": "inactive: -15.1%"}, {"smiles": "COc1cc2c(cc1NC(=O)COc1ccc(Br)cc1)oc1ccccc12", "activation": "inactive: -5.24%"}, {"smiles": "Cc1cc(C)c(NC(=O)C2CCN(C(=O)N3CCOc4ccccc43)CC2)c(C)c1", "activation": "inactive: 8.8%"}, {"smiles": "O=C(NCc1ccccc1)c1ccc(CS(=O)(=O)c2c(Cl)cccc2Cl)o1", "activation": "inactive: 19.2%"}, {"smiles": "COc1ccc(OC)c(CCNC(=O)CCCn2c(=O)c3cccn3c3cccnc32)c1", "activation": "inactive: -20.2%"}, {"smiles": "COc1ccc(CNC(=O)c2cnn(-c3ccccc3)c2-n2cccc2)cc1OC", "activation": "inactive: 16.9%"}, {"smiles": "Cc1ccc(NC(=O)Cn2nc(C)c3nn(-c4ccc(Cl)cc4)c(C)c3c2=O)cc1F", "activation": "inactive: -14.1%"}, {"smiles": "COc1ccc(N2CCN(C(=O)CSc3nc(-c4ccccc4)no3)CC2)cc1", "activation": "inactive: 22.5%"}, {"smiles": "COc1ccc(-n2nc3c(N4CCC(C(=O)NC5CCCCC5)CC4)nnc(C)c3c2C)cc1", "activation": "inactive: 1.24%"}, {"smiles": "COc1ccc(-c2n[nH]c3c2C(c2ccccn2)N(C)C3=O)cc1", "note": "(configuration not stated)", "activation": "inactive: -12.9%"}, {"smiles": "Cc1cccc(C(=O)Nc2ccc3nc(SCC(=O)N4CCCC4)sc3c2)c1", "activation": "inactive: -13%"}, {"smiles": "O=C(CSc1nc(=O)[nH]c2c1CCC2)Nc1cc(C(F)(F)F)ccc1Cl", "activation": "inactive: -5.26%"}, {"smiles": "Cc1ccc(NC(=O)c2nc(S(=O)(=O)Cc3ccc(F)cc3)ncc2Cl)cc1C", "activation": "inactive: -26.9%"}, {"smiles": "CCOc1ccc(OCC)c(NC(=O)CN(C)S(=O)(=O)c2ccc3[nH]c(=O)oc3c2)c1", "activation": "inactive: -2.46%"}, {"smiles": "CCOC(=O)c1[nH]c(C)c(CCC(=O)N2CCN(c3cc(C)ccc3C)CC2)c1C", "activation": "inactive: -15.8%"}, {"smiles": "Cc1ccc2oc(=O)c3cnn(CC(=O)N4CCN(c5cccc(Cl)c5)CC4)c3c2c1", "activation": "inactive: 2.03%"}, {"smiles": "COc1cc(CNC(=O)c2ccc(NC(=O)N3CCCCc4ccccc43)cc2)cc(OC)c1OC", "activation": "inactive: 1.67%"}, {"smiles": "Cc1cc(C(=O)NCCc2ccc(Cl)cc2)c2c(C)nn(-c3ccccc3)c2n1", "activation": "inactive: 0.134%"}, {"smiles": "CC(=O)[C@@]1(O)CC[C@H]2[C@@H]3CCC4=CC(=O)CC[C@]4(C)[C@H]3CC[C@@]21C", "activation": "inactive: -1.3% and inactive: -7.36%"}, {"smiles": "O=C(c1cccs1)N1CCCc2cc(NS(=O)(=O)c3cc(F)ccc3F)ccc21", "activation": "inactive: -17.9%"}, {"smiles": "Cc1ccc(OCC(=O)NCC(=O)OCc2cc(=O)n3nc(CC(C)C)sc3n2)cc1", "activation": "inactive: -4.73%"}, {"smiles": "CCc1ccccc1NC(=O)C1CCCN(S(=O)(=O)c2ccc3[nH]c(=O)ccc3c2)C1", "note": "(configuration not stated)", "activation": "inactive: -15.2%"}, {"smiles": "O=C(NCCc1ccc(Cl)cc1)c1cnc2sc(N3CCCC3)nn2c1=O", "activation": "inactive: -0.128%"}, {"smiles": "CC(=O)c1cccc(NC(=O)CCn2nc(C)c(S(=O)(=O)N3CCCCC3)c2C)c1", "activation": "inactive: -13%"}, {"smiles": "CCCC(=O)N1c2ccccc2-c2nnc(SC)nc2OC1c1sccc1C", "note": "(configuration not stated)", "activation": "inactive: -15.4%"}, {"smiles": "CC(Oc1ccccc1)C(=O)Nc1c(C(=O)Nc2cccc(F)c2)oc2ccccc12", "note": "(configuration not stated)", "activation": "inactive: -15.4%"}, {"smiles": "Cc1ccc(C)c(N2CCN(S(=O)(=O)c3cc(C(=O)Nc4ccccc4C(F)(F)F)ccc3F)CC2)c1", "activation": "inactive: -22.2%"}]}]}
